# In article PMC4336329 (PLoS ONE, 2015):
# The whole screen tested about 310,000 compounds, of which about 14,000 (4.5%) showed an effect of 50% or more. The effect is printed as a negative number. Some of the results follow.
# Target: human ether-à-go-go-related gene (hERG) potassium channel (human, UniProt Q12809)
# Assay: primary screen, population patch clamp on CHO cells stably expressing hERG
# 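Further: peak tail current of the secondary pulse compared with the same well before compound.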
# Sequence of human ether-à-go-go-related gene (hERG) potassium channel (Q12809 whole entry, looked up): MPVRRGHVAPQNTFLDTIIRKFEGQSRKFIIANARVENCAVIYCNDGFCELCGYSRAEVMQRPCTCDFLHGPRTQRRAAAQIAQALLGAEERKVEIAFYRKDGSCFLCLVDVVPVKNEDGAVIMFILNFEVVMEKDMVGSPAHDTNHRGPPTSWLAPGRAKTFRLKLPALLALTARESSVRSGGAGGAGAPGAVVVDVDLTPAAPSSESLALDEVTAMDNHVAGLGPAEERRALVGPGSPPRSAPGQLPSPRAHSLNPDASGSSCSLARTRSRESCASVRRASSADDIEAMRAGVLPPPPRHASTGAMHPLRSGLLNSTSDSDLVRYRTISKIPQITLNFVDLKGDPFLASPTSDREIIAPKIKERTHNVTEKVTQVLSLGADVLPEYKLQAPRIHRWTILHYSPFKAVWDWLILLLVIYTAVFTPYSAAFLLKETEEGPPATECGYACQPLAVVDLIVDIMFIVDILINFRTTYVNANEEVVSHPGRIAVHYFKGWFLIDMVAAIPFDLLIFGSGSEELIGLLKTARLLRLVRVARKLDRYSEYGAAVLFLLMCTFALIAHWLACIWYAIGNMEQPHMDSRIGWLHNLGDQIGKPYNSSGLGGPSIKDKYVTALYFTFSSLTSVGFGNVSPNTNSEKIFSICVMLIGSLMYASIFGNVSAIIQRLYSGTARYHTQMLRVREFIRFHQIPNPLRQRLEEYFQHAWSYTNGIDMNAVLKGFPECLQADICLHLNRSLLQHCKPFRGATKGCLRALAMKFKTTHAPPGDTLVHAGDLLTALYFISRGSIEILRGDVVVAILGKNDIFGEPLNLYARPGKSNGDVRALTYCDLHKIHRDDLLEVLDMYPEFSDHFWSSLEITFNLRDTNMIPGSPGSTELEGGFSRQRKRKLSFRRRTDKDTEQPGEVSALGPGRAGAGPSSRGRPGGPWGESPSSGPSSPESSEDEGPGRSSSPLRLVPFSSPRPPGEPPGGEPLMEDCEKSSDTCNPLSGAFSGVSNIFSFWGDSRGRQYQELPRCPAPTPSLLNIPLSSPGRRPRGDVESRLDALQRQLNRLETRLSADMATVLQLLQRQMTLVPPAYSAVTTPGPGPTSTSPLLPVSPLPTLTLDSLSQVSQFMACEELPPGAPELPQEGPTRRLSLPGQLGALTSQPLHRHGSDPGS
row,Structure (SMILES),"hERG current change (%, negative = inhibition) at 10uM"
1,COc1ccc(NS(=O)(=O)c2cc(-c3cnc(C4CC4)o3)ccc2C)cc1,6.02%
2,CCCn1c2ccccc2c2cnn(CC(=O)NC3CCCC(C)C3C)c(=O)c21 (stereo not drawn),-0.0339%
3,COc1ccc(CCNC(=O)c2ccc(CNS(=O)(=O)c3ccccc3)cc2)cc1OC,-11.1%
4,C=CCCCCCCCCC(=O)Nc1ncccn1,6.59%
5,Cc1cc(O)c(Sc2ccc(Cl)cc2)c(=O)[nH]1,12.1%
6,C=CCNC(=O)C1=NN(c2c(F)c(F)cc(F)c2F)C(=O)CC1,47.5%
7,NC(=O)C1CCN(C(=O)CN2CCc3ccccc32)CC1,-9.54%
8,Cc1ccccc1OCCCSc1nc2ccccc2[nH]1,11.5%
9,Cc1ccc(C(=O)C2=C(O)C(=O)N(c3ncccn3)C2c2ccc(Cl)cc2)o1 (stereo not drawn),2.43%
10,Cc1cc(Cl)ccc1NC(=S)NCC(O)c1ccccc1 (stereo not drawn),2.79%
11,COc1ccc(N2CCN(C(=O)c3cn(C)c4ccc(S(=O)(=O)N5CCOCC5)cc4c3=O)CC2)cc1,11.5%
12,O=C(C1CCCO1)N1CCN(C(=S)Nc2ccc(Cl)cc2Cl)CC1 (stereo not drawn),-9.7%
13,COc1cc(OC)cc(C(=O)NCC2CCCN(C(=O)c3oc(C)cc3C)C2)c1 (stereo not drawn),-18.5%
14,O=S(=O)(Nc1ccc(-c2nc3ccccc3o2)cc1)c1ccccc1,0.304%
15,CC(C)NC(=O)C1CCN(C2CCN(C(=O)c3ccc4cccc(F)c4n3)CC2)CC1,1.93%
16,Cc1cc(C)cc(CC2CC(=O)N(c3cc(C)ccc3C)C2=O)c1 (stereo not drawn),9.28%
17,CCOc1ccc(N(CC(=O)Nc2ccc(OC)cc2OC)S(=O)(=O)c2c(C)[nH]c(=O)[nH]c2=O)cc1,23.1%
18,CCC(Oc1ccccc1)C(=O)O/N=C(\N)c1ccc(OC)c(OC)c1 (stereo not drawn),2.28%
19,CCc1ccccc1N(CC(=O)N1CCCCCC1)S(C)(=O)=O,20.7%
20,O=C(N/N=C/c1sc(N2CCOCC2)nc1-c1ccccc1)c1ccccc1F,10.4%
21,CCOc1ccc(S(=O)(=O)N2CCCC(C(=O)NCc3ccncc3)C2)cc1 (stereo not drawn),-15%
22,CCc1cc(=O)oc2c(C)c(O[C@@H]3O[C@H](CO)[C@@H](O)[C@H](O)[C@H]3O)ccc12,9.49%

row,Structure (SMILES),"hERG current change (%, negative = inhibition) at 10uM"
1,O=C(c1cccs1)N1CCN(c2ncc(C(F)(F)F)cc2Cl)CC1,-65%
2,CCOc1ccc(/C(O)=C2/C(=O)C(=O)N(c3ccccn3)C2c2ccc(C)cc2)c(C)c1 (stereo not drawn),10.2%
3,Cc1ccccc1N1CCN(C(=O)NCc2cccc(Cl)c2)CC1,10%
4,CC(=O)N1CCN(C(=O)c2cccc(S(=O)(=O)N3CCN(c4ccccc4)CC3)c2)CC1,-16.5%
5,O=c1[nH]nc(-c2ccc(F)cc2)cc1-c1ccccc1,15.1%
6,C(=C\c1ccccc1)/CSc1nnc(-c2cccnc2)n1Cc1ccco1,-70.8%
7,CC1(C)C(=O)C2(CCCCC2)C(=O)OC1C(=O)c1ccccc1 (stereo not drawn),-12.3%
8,Cc1cc2nc(C)c(Cc3ccccc3)c(=O)n2[nH]1,9.91%
9,O=C(CCNC(=O)c1ccc([N+](=O)[O-])cc1)NCCC1=CCCCC1,-21.3%
10,Cc1ccc(CN2CCCN(Cc3c(C)cc(C)cc3C)S2(=O)=O)cc1,19.8%
11,Clc1ccc2c(c1)C(N1CCNCC1)=Nc1ccccc1O2,0.229%
12,Nc1ccn([C@H]2C[C@H](O)[C@@H](CO)O2)c(=O)n1.O,8.46%
13,COc1ccc(C)cc1NC(=O)CCN1CCN(C/C=C/c2ccccc2)CC1,-77.1%
14,CCCc1nnc(NC(=O)NCCN2C(=O)C3C4C=CC(C4)C3C2=O)s1 (stereo not drawn),7.25%
15,CCN(CC(=O)Nc1cccc(OC)c1)CC(=O)Nc1cccc2ccccc12,-10.2%
16,COc1cc(NC(=O)c2ccc(C)c([N+](=O)[O-])c2)ccc1NC(=O)c1ccco1,15.6%
17,CCCCN(C(=O)COC(=O)c1nc2nccc(C)n2n1)C1CCS(=O)(=O)C1 (stereo not drawn),1.19%
18,Cc1cc(C)nc(NC(=NCCc2c[nH]c3ccccc23)NC(=O)C(C)(C)C)n1,-4.06%
19,CN(Cc1nc2ccccc2n1C)S(C)(=O)=O,-5.28%
20,CC(=O)SCCC(=O)N1C(C)CCCC1C(=O)O (stereo not drawn),-2.53%
21,CN(Cc1c(F)cccc1Cl)S(=O)(=O)c1cccs1,-19.8%
22,NC(=O)c1[nH]cnc1N,5.75%

row,Structure (SMILES),"hERG current change (%, negative = inhibition) at 10uM"
1,CC(=O)N1N=C(c2ccc(NS(=O)(=O)c3ccccc3)cc2)CC1c1ccco1 (stereo not drawn),-12.2%
2,O=C(COC(=O)c1cnccn1)c1ccc2c(c1)CCCC2,-0.851%
3,CC(=O)Nc1ccc(NC(=O)CSc2ccc(-c3ccc4c(c3)OCO4)nn2)cc1,-8.17%
4,Cc1ccccc1C(=O)NCC(=O)NNC(=S)NC(=O)c1ccccc1,1.49%
5,CC1(c2nnc(-c3ccc(Cl)cc3)o2)CC(c2c(Cl)cccc2Cl)=NO1 (stereo not drawn),1.13%
6,CCCn1nnnc1NC(=O)c1cc(Br)ccc1OC,-8.29%
7,O=C(CSc1nnc(NC(=O)c2cccc(Br)c2)s1)NCC1CCCO1 (stereo not drawn),12.1%
8,CCCCS(=O)CC(O)COc1ccc(C(C)(C)C)cc1 (stereo not drawn),-7.18%
9,COc1ccc(Oc2cccc(Cl)c2CNC(=O)CC(C)(C)CC(=O)O)cc1,-35.5%
10,C=CCn1c(SCc2nc(N)nc(N(C)C)n2)nnc1-c1cccnc1,4.04%
11,COc1ccc(/C=C/C(=O)N(C)Cc2cccs2)cc1S(=O)(=O)N1CCOCC1,-8.34%
12,CC(C)C(NS(=O)(=O)/C=C/c1ccccc1)C(=O)NCc1ccc(F)cc1 (stereo not drawn),25.3%
13,O=C1[C@H]2[C@@H](c3ccc(F)cc3)N3C(=O)N(c4ccccc4)C(=O)[C@@]3(Cc3ccccc3)[C@H]2C(=O)N1C1CCCCC1,-0.585%
14,Cn1c(=O)c2c(nc(N3CCN(Cc4ccccc4)CC3)n2CCCc2ccccc2)n(C)c1=O,-46%
15,CSc1ncccc1C(=O)NCCc1ccc(S(N)(=O)=O)cc1,13.8%
16,O=C(Cc1ccc(F)cc1)N/N=C/c1ccncc1,-8.56%
17,Cc1cc(C)cc(NC(=O)COc2ccc(C(=S)N3CCOCC3)cc2)c1,2.38%
18,CCCC(=O)C1=C(N(C)c2ccccc2)CC(C)(C)C(C(=O)OC)C1=O (stereo not drawn),1.82%
19,Cn1cc([N+](=O)[O-])c(C(=O)Nc2ccn(Cc3c(F)c(F)cc(F)c3F)n2)n1,-9.84%
20,CCc1cc(Cn2nc(-c3ccccc3)cc2C(=O)NCc2ccccc2OC)on1,-14.6%
21,CC(=O)Nc1cccc(NC(=O)CS(=O)(=O)c2cn(CC(=O)N3CCCC3)c3ccccc23)c1,16.7%
22,COc1ccc(S(=O)(=O)NCCc2ccco2)cc1OC,11.2%

row,Structure (SMILES),"hERG current change (%, negative = inhibition) at 10uM"
1,O=S(=O)(Nc1ccc(N2CCCCC2)cc1)c1ccccc1F,3.71%
2,Cc1cc(Cl)ccc1N(CC(=O)NCCSCc1ccco1)S(C)(=O)=O,7.12%
3,COc1ccc(C(=O)OCn2nnc3ccccc3c2=O)cc1,-10.4%
4,CCNC(=O)c1sc(=S)n(-c2ccc(C)cc2)c1N,-2.32%
5,O=c1ccc(-c2ccc(S(=O)(=O)Nc3cccc(F)c3)o2)n[nH]1,-2.54%
6,Cn1cc(CNC(=O)C2CCC(=O)N(Cc3ccccc3F)C2)cn1 (stereo not drawn),9.9%
7,O=C(NCCCCCCNC(=O)c1cccs1)c1cccs1,16.1%
8,COc1cc2c(cc1OC)CN(c1ncccc1[N+](=O)[O-])CC2,-30.5%
9,CCOC(=O)C1(Cc2ccccc2C(F)(F)F)CCN(Cc2ccc(COC)o2)CC1,-1.74%
10,O=C(COC(=O)CCN=C1NS(=O)(=O)c2ccccc21)NC1CCCCCCC1,-7.06%
11,CC(C)c1nc2c(s1)CCc1onc(-c3cccc([N+](=O)[O-])c3)c1-2,16.4%
12,Cc1onc(-c2c(Cl)cccc2Cl)c1C(=O)O/N=C(\C#N)c1ccccc1,10.9%
13,Cn1c(/N=C/c2ccccc2[N+](=O)[O-])nc2ccccc21,8.71%
14,COC(=O)CSc1nc(-c2ccc(C)cc2)c2c(c1C#N)CCCC2,3.17%
15,Cc1cc(NC(=O)COC(=O)C2CC(=O)N(c3cccc(Cl)c3)C2)no1 (stereo not drawn),14%
16,C/C(=N\NC(N)=S)c1ccc(-n2ccnc2)cc1,-10.2%
17,CC(=O)NCCNC(=O)c1cc(-c2cccc3ccccc23)nc2ccccc12,-7.57%
18,Cc1cc(S(=O)(=O)N2CCCCC2)ccc1OCC(=O)N1CCCC1,-0.304%
19,N/C(=N\OC(=O)c1ccc2ccccc2c1)c1ccc(Br)cc1,1.79%
20,O=C(OCCN1C(=O)c2ccccc2C1=O)Oc1ccccc1,-9.79%
21,Cn1cnc2c(=O)sc3ccccc3c21,5.9%
